# Data published in the supplement of paper PMC6531468.
# The list shows a part of the results. These are enrichments in a pooled selection; single values are uncertain. Each score is taken over the longer molecules that contain the sequence shown.
# Tested on: IMP3 RRM1-2
# Test: 6-mer SELEX enrichment z-score vs GST control; IMP3 is the RNA-binding protein IGF2BP3; higher = more enriched by binding
# Conditions: construct: RRM1-2 (1-163); SELEX round: R2
# Protocol: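 SELEX-seq with GST-tagged IMP3 RRM1-2 (Met1-Asn163) and an N40 RNA pool, round 2. 6-mer enrichment z-score normalised to GST SELEX. RNA written as DNA (T = U).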
# Chain of IMP3 RRM1-2 (chain, as listed by the source): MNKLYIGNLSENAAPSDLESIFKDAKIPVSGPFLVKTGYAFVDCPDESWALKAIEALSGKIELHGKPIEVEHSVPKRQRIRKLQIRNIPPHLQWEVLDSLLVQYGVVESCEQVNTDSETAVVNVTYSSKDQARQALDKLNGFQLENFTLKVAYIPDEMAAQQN
row,Sequence,6-mer SELEX enrichment z-score
1,ACAGGC,1.16
2,TACCTC,-0.096
3,CAAGGT,0.058
4,AGTGCC,-0.187
5,GGCAGG,0.119
6,AGGCGA,-0.129
7,AGAATT,-0.537
8,GCATAG,0.421
9,CCCACT,-0.189
10,ATCAGG,1.42
11,AATGTG,-0.646
12,CAGAGT,0.31
13,CTCAAT,0.634
14,ACAGAG,0.355
15,ATAGCC,-0.295
16,AAGTCC,-0.581
17,TCGACA,0.127
18,GTTAGT,0.347
19,CATGGT,0.552
20,CATAGC,0.85

row,Sequence,6-mer SELEX enrichment z-score
1,GGCCAC,0.456
2,GTTCAA,0.357
3,AAACAC,2.1
4,ATTGCG,0.093
5,TCGCGA,-0.136
6,TAAAAA,-2.56
7,GGTCTG,0.321
8,CTGCGG,0.07
9,GAGTAC,-0.21
10,AATACC,-1.14
11,CAGGAA,-0.101
12,ACTCTA,-0.081
13,GGGTTG,0.366
14,GTTGGA,0.141
15,TTTTTC,0.449
16,ATCCTA,-0.3
17,GCGTGG,0.15
18,AGCTGT,0.094
19,CGCGCA,0.23
20,TCAGCT,0.594
